# Source: the supplement of paper PMC3334620
# Whole data set: some 33,000 sequences, median “E-score (-0.5 to 0.5)” near -0.017, cut for the highest 2% near 0.3. The list shows a part of the results.
# Target: T1, Sut1 (UniProt P53032)
# T1 sequence: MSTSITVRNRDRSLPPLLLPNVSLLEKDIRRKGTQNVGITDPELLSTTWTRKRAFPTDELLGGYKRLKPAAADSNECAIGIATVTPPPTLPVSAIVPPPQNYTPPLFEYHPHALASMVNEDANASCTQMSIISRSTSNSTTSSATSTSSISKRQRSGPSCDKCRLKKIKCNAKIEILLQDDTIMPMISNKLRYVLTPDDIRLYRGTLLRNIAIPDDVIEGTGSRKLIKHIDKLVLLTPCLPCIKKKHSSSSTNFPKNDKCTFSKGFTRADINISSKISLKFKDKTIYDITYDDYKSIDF
# Test: PBM E-score (8-mer binding enrichment) (E-score (-0.5 to 0.5)); higher = stronger / more preferred TF binding; most listed sequences are background and not binding sites
# Details: protein concentration: 200 nM; construct: GST-full length
# Summary of the method: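 Masliner-normalised scans of fluorescent anti-GST signal were the basis for scoring. That signal came from GST-tagged yeast transcription factors applied at about 100-200 nM to double-stranded universal all-10-mer Agilent arrays on fresh or once-stripped slides. Each ungapped eight-base word, pooled with its reverse complement, received an E-score from the Universal PBM Analysis Suite.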
row,Sequence,PBM E-score
1,ATCGTTCA,0.05
2,CCAAGACC,-0.261
3,CTAAAGAC,-0.0542
4,AGCTATAA,0.0595
5,CGGGGAAG,-0.0346
6,ACGTGAAG,-0.186
7,ATGAGCAC,-0.0678
8,CAGCGAGA,-0.175
9,CCACGTAC,-0.217
10,AAAAATCC,0.171
11,GATCCAGC,-0.22
12,AAAGAAAC,0.149
13,ATTCTGGC,-0.0493
14,CCACGGCC,-0.289
15,AACCAAAG,0.221
16,CTCAAATC,-0.0759
17,GCGAACAA,0.138
18,ACTGGCCC,-0.186
19,AATGTGGG,0.0376
20,CCAGGGGG,-0.424
21,CCGGGGTA,0.296
22,AACAGGGC,-0.0802
23,AAGAGACA,0.205
24,ACCGCCCA,-0.115
25,GCGTCTCA,-0.223

row,Sequence,PBM E-score
1,TTACCGAA,0.263
2,ACCTACTA,0.0679
3,CTATCACA,0.0316
4,GCTTACCA,-0.0165
5,ACTGTGAG,-0.0765
6,ATAGGATC,-0.0239
7,ATTATGCG,0.244
8,TGATATCA,0.129
9,AGCATTCC,-0.0595
10,CAAACCTA,0.135
11,CAACATAG,-0.0276
12,CTTTTTTA,0.258
13,GCGATGTA,0.0361
14,AATCAGTA,-0.0139
15,AATGCTTC,0.153
16,AGTCTGTG,-0.24
17,GGACGTGA,-0.306
18,ACCTCTGC,-0.199
19,AGTACCAG,-0.175
20,GAGTAAAC,0.161
21,AGCTCGGG,0.111
22,GTTAGAAC,0.112
23,ATTACGTA,0.136
24,TCAACCAA,-0.00475
25,AATGAGAC,-0.0272

row,Sequence,PBM E-score
1,GTGGTTCA,0.0643
2,TGATGTAA,0.208
3,ACCTTGAT,0.0485
4,CTTTGGCC,0.144
5,CGTTTGGA,-0.0577
6,CACTACAC,-0.134
7,TAACCGGA,0.332
8,AAGCTGCG,-0.291
9,CGGGCATA,-0.16
10,ACTGAAAG,0.143
11,GGTGTCCA,-0.00701
12,CCAGCGTA,-0.042
13,CCCTTGGA,-0.12
14,GCGTTTCA,-0.051
15,CGTTACAC,-0.0419
16,ATTACACC,0.116
17,CTACGCAC,-0.113
18,CATCTGAC,-0.163
19,CTACTTAC,0.0799
20,AACTATCC,0.00647
21,AACAATTA,0.292
22,GGTGGGAC,-0.226
23,GCCGAACC,-0.00119
24,AATTCTGT,0.184
25,AGCTATGC,-0.227

row,Sequence,PBM E-score
1,CAATGGCA,0.0358
2,AGCCGGGG,-0.116
3,CACATAGC,-0.00421
4,CCAGTACC,-0.034
5,GAGTAGTA,0.0911
6,CCTACCCG,-0.139
7,AATCCGCG,-0.103
8,ATGGCGCA,-0.056
9,CGATCGAA,0.127
10,ACTATTTA,0.246
11,GTGTTTGA,0.156
12,ACACTGAT,-0.0703
13,TATTTGCA,0.0534
14,TGTCCACA,0.185
15,CCCAGTTC,-0.0702
16,GGAGCCGA,-0.123
17,AAGTATTG,0.0899
18,CAGCACTA,-0.0228
19,GCTCCGAA,0.439
20,AGTATTCC,0.128
21,AATCTTCA,0.204
22,AGGAAGCC,-0.168
23,CGACCCAC,0.0372
24,GAACGGAC,0.29
25,AAGCATTG,-0.114

row,Sequence,PBM E-score
1,GTGGAGCA,-0.132
2,AAGGGTAC,-0.11
3,AACAAGTG,0.0425
4,AGGAGATC,0.0207
5,AGCCTTAA,0.0763
6,GGTTAGCA,-0.0644
7,GGCATCCA,-0.256
8,CCGAGGTA,-0.112
9,GAATTCAA,0.272
10,AAAAATGC,0.149
11,GAAGCTTC,-0.123
12,CTTGCCGC,-0.242
13,CTATTCGA,-0.00526
14,AGATGCAC,-0.0648
15,CAAAGTCA,0.0849
16,CTAATTAA,0.0567
17,ACAAACCC,-0.0391
18,CACCGGAG,0.437
19,AGGGGAGC,-0.291
20,AACAATAT,0.331
21,GGACGGCC,-0.285
22,TACGCCCA,-0.0717
23,CATCCTTC,-0.0679
24,CGGTATAG,-0.0612
25,CTTAATGC,-0.0825

row,Sequence,PBM E-score
1,AAACGGTG,0.0222
2,AAACAATT,0.2
3,CATACAAC,0.0999
4,CCCCTCAG,-0.38
5,AACCTGGA,0.0664
6,CTCCTACA,-0.00847
7,CCGGATTC,0.106
8,AGCTTCCC,-0.182
9,AACCACTT,0.0795
10,TGCTACAA,0.157
11,AAGTCTAA,0.00927
12,TCTCATAA,0.118
13,TGTAGAAA,-0.0101
14,CGGGTCGC,-0.0987
15,TAGGTAAA,0.102
16,CAATTTAG,0.181
17,CCTTCGCC,-0.108
18,ATGCTCAC,-0.0432
19,ACATCTCC,0.247
20,ATTCGCGG,0.118
21,ATTCCAAG,0.0681
22,ATGTCCCA,-0.178
23,GGATGCTA,-0.228
24,ATGTGGTC,-0.0655
25,TAAGTGCA,0.106

row,Sequence,PBM E-score
1,AATCATAA,0.173
2,ACCCAAAT,0.00677
3,GATAGGGA,-0.0268
4,AGACACTA,0.096
5,CCGCTACC,-0.0517
6,GAGAAAGC,0.0266
7,CCAGTTGA,-0.0814
8,GATAGATC,-0.0376
9,AACCACGT,-0.105
10,ACTCCTGA,-0.0782
11,TACCTGCA,-0.0977
12,ACCCCGCT,0.107
13,CACTCGGA,0.266
14,GACGCGTA,-0.0416
15,GCTGATTA,0.0833
16,AGAAACGG,0.0547
17,CATACTAC,-0.00109
18,GGTAACAA,0.28
19,AGTACACG,-0.0194
20,AAAATTCT,0.176
21,GAAATCAC,0.185
22,CGGGGATC,0.113
23,CTGTTCCC,-0.254
24,CAGCTCGA,-0.115
25,AAGTTGTC,0.0732

row,Sequence,PBM E-score
1,AGTCGCCG,0.00025
2,AAGTTGTG,-0.0718
3,CACACGAC,-0.182
4,AACAAATA,0.201
5,ATTACACG,-0.00445
6,AGGCTTAC,0.138
7,AAAAACGT,0.0839
8,CGGCATAC,0.056
9,CCGGACTA,0.48
10,TCCCACGA,-0.0703
11,GCTAGGTA,-0.0966
12,AGGGTAAG,-0.165
13,AGATGAAT,-0.0353
14,TAAACGCA,0.0594
15,CTCTTTAA,0.176
16,ATAACTCA,0.117
17,GAACGTAC,-0.0884
18,TCAATTAA,0.231
19,GGGCATAA,-0.0121
20,ACTCTTGA,-0.111
21,ACCACATA,-0.0101
22,GTGATCTA,0.163
23,CATACGTA,0.16
24,ACGCATCG,-0.036
25,AGGCTGAT,-0.228

row,Sequence,PBM E-score
1,GCTCCCCC,-0.444
2,CCAAAAAA,0.247
3,GAACTCTA,-0.022
4,CGTTGGGC,-0.333
5,GGAGCGAC,0.0205
6,CATCGTTC,-0.0484
7,AACGTCAG,-0.202
8,AGCCGCAC,-0.171
9,AACGCTGT,-0.0573
10,ATTAGGGC,-0.0952
11,AATATCCC,-0.0894
12,ATTGAACC,0.0875
13,CAAATGCG,0.13
14,ATTCCTTG,-0.175
15,TCCTACCA,-0.163
16,GCAGTTAA,-0.00443
17,GAAGGAAA,-0.0845
18,GGGTCAAC,-0.0211
19,TGAGGGCA,-0.236
